Experimental data: the supplement of paper PMC3334620
Whole data set: some 33,000 sequences, median “E-score (-0.5 to 0.5)” near -0.013, cut for the highest 2% near 0.3. Some of the results follow.

What follows are sequences tested against T1, Msn1 (UniProt P22148) (assay: PBM E-score (8-mer binding enrichment) (E-score (-0.5 to 0.5)); higher = stronger / more preferred TF binding; most listed sequences are background and not binding sites). Settings: protein concentration: 200 nM; construct: GST-full length.
T1 sequence: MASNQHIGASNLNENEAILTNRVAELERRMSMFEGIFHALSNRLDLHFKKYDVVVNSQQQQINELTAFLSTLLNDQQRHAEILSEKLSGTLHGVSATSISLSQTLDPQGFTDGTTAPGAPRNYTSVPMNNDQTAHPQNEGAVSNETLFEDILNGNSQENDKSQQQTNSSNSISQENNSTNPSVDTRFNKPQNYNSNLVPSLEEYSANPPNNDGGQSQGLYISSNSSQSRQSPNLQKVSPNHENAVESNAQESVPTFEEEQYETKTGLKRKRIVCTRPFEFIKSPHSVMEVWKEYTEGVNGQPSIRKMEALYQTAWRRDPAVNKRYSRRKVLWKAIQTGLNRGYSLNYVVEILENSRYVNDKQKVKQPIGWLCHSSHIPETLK
Procedure: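 Universal 'all 10-mer' protein binding microarrays (Agilent AMADID 015681) probed with GST-tagged S. cerevisiae TFs (full-length or DBD) made by in vitro transcription/translation (PURExpress), about 100-200 nM. Bound TF was detected with fluorescent anti-GST. Each ungapped 8-mer (which stands for itself and its reverse complement) is scored by the PBM enrichment score (E-score), a modified Wilcoxon-Mann-Whitney statistic from -0.5 to +0.5, computed with the Universal PBM Analysis Suite. Scale: above 0.35 generally sequence-specific binding.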

Sequence	PBM E-score
ACCATAAT	0.0924
ATCTACTG	0.0386
GCACGTTA	-0.123
ACCGACGT	0.097
ACCTGTTC	-0.0766
AAAGACAA	0.418
AACGGTTC	0.0316
CACAGTGA	0.0942
CATGTGGG	-0.0995
GTCAGTTA	0.0735
ACACCATC	-0.0519
AGCACAAT	0.0538
GTAATAAA	0.202
CCGGCAAA	0.148
ACCTAGTG	-0.00377
CAACTTCC	0.143
AGAGACTA	-0.0629
CACAGCTC	-0.0937
AAGATTGG	0.0874
GGCACGAC	-0.0715
AAATTCTG	0.168
CACAGATC	0.0954
AATGGGTC	-0.277
CGTCGTAA	-0.0032
CCGATCCC	-0.203

Sequence	PBM E-score
AAATGCAG	0.181
GCGCCATA	-0.0747
AGTTTGCA	-0.0958
TCTTGCCA	-0.0456
TCAGGGAA	-0.0838
GACCCGCC	-0.0937
GCCAATAC	-0.152
ATAAGTGA	-0.0082
AATCAGGA	-0.0564
AGCTGCCC	0.0115
AGCGTAGA	-0.0952
ACAACGGA	0.304
ATCACATG	-0.0789
AGATGGCT	-0.0689
AAGCTCAC	-0.119
CCCCTCGG	-0.0601
ATTCATTG	0.0603
GCTTGCGA	0.158
ACCACGAC	-0.142
CTGATCCC	-0.318
CTACATAG	0.0928
ACGGGACC	-0.247
CTCGAGGA	-0.0212
ACATGGTG	0.222
AAGAGCAT	0.0863

Sequence	PBM E-score
AGTATCAG	-0.0273
ATGGCAAG	0.0283
AGCGCTTC	-0.00484
CAAAATGG	0.133
CCCGAACG	0.12
TAACGGAA	0.147
ACCCGGGT	-0.218
CACTTGGG	-0.13
TGCCACAA	0.16
CAACATTC	-0.11
CGTTACGC	-0.011
CCCCCTTC	-0.455
CTAAAAGC	-0.0186
AAATGTTC	0.284
ATTCCGCA	0.0586
CTTTGAGA	0.125
AACCCATG	0.0122
TTAAGGAA	0.051
CTAGATCA	-0.071
ACCGTGAG	-0.224
AGGAAAGG	-0.18
ACACGAAG	0.152
CTTGCTGC	-0.146
CGTTCAAC	0.109
GATGCAAC	-0.167

Sequence	PBM E-score
AGCTCATC	-0.267
AACTCGAA	0.0292
CGCAGTAC	-0.045
GACGGGCA	-0.182
CCTAACAG	-0.0289
TCGCCTAA	0.0838
CATGGCTA	-0.0195
GCTTATTA	0.0314
ACGTTATG	0.0794
GGACAGAA	0.332
AAACTAGT	0.0401
GATTCCGA	0.0558
ATGAGCGC	-0.0886
CGCTCTTC	-0.111
AAAGATTA	0.258
AGCCGCGA	-0.00879
ATACGAGG	-0.0611
CGTCGCGC	-0.085
GGACGATA	-0.157
ACTCGCCG	0.163
CATCCCGC	-0.125
CAGACTCA	-0.093
GTACACCA	-0.038
CGGTAAAG	0.118
ACTCAAGC	-0.0463

Sequence	PBM E-score
GATCGCAC	-0.0743
CTGGACCC	-0.155
ACGATCTA	0.0183
ACTGGTCG	-0.083
GACAGCAA	0.102
ACGGATGG	0.00913
CATTGCCC	-0.148
ATGTTAAA	0.0729
AGTAATCC	-0.114
AGGGCGAG	-0.274
ACGAGGGC	-0.0717
GCCTCATA	-0.175
CCCTGATA	-0.231
GAAGAGTC	-0.11
CTGATTCA	0.0146
GACTATCA	-0.0683
CGTCGATA	0.0412
ATCAAAAC	0.00367
CAGTTGGA	0.0318
ACCTCTTA	0.0962
AAAGGCTC	-0.0569
TCTCACAA	-0.0426
AATGAGCT	-0.00686
ATCGCAAC	-0.0713
AATATGCA	-0.0554

Sequence	PBM E-score
ATCAGACC	-0.192
GATGTAGC	-0.119
GGAAGTCC	0.178
CAAGCAGG	-0.205
AATCTGAA	-0.0472
ACGGCCAA	-0.0109
CGTCTCGC	-0.0165
AGCAACTC	-0.0296
CTCCGTTC	0.0736
AATCTAGC	-0.149
TAGCATCA	-0.00027
TCCCAAAA	0.224
GCATCAGC	-0.163
CACAGACC	0.0741
CACATAGA	0.116
CACTCTCA	-0.181
GAAATTAA	0.34
ACAGATCA	0.119
GGCGTGGA	-0.127
TCATAACA	0.139
CCTTACGA	-0.0982
ATCTCTAA	0.026
TAAAATTA	0.213
AGAACCCG	-0.15
ATTTATCC	0.221

Sequence	PBM E-score
CGATACCC	-0.119
AATAACGA	0.0732
AGTGTTCG	0.093
ATACACGA	0.0174
AGACAGGC	0.0437
AAGGTCCT	-0.0223
AATCGAGT	-0.0102
CATACATA	0.174
GATGTTTA	0.0255
ATAATAGA	0.107
CGACCACC	-0.306
AATTGAAT	0.128
CCACCACC	-0.209
ATCCGCGG	0.033
GTGACCCA	-0.0261
CTACCACC	-0.303
CGTGCACG	0.0616
CAGGCCCA	-0.143
ATCGAAAC	-0.0353
GTACCAAC	0.189
CCTGCGCA	-0.0866
GCCTAAAA	-0.077
